Reference: patent publication US6743604

Legend:
[1] = molecular target: T1, human IL13Rα1 co-expressed with human IL4Rα on transiently co-transfected COS7 cells (heterologous IL4/IL13R … (human, UniProt P24394 26-825)); assay: radioligand binding on COS7 cells co-transfected with IL13Rα1 and IL4Rα; low affinity sites
T1 construct: whole, on cells; Both cDNAs were co-transfected in COS7 cells; also called IL13Rα1 + IL4Rα1
T1 sequence 1: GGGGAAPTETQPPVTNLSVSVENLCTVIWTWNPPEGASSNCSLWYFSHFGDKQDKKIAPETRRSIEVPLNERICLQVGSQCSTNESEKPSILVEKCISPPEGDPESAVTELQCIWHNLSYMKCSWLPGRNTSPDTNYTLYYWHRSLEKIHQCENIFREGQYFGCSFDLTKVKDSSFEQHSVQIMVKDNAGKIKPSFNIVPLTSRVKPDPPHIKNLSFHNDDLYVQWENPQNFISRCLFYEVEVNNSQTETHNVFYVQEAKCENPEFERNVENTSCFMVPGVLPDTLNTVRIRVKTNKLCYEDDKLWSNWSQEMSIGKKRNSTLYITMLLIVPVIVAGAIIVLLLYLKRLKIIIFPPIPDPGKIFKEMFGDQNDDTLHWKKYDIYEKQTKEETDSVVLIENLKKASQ
T1 sequence 2: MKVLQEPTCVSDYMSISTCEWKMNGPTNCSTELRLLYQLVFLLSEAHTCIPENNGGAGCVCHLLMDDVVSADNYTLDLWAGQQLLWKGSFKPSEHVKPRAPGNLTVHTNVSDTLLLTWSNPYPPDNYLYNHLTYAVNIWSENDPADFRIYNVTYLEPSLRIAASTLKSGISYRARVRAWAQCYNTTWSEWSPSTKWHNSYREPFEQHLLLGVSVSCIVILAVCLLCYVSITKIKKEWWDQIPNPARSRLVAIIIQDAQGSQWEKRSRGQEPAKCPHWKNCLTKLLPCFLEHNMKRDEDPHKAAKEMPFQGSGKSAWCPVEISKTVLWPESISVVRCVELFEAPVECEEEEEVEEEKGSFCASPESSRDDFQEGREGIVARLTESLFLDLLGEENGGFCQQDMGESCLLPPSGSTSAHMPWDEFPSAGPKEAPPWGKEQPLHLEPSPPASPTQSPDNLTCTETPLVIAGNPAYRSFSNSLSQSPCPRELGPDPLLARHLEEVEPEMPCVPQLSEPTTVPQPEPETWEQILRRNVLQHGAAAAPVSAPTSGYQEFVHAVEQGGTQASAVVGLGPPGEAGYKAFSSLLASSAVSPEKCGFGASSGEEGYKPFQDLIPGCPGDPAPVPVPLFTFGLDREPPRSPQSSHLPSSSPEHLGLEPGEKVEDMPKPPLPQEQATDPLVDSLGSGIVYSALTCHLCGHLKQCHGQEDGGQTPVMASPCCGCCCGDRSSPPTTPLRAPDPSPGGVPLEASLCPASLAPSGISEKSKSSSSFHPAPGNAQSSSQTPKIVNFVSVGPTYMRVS

[2] = molecular target: T1, human IL13Rα1 co-expressed with human …; assay: radioligand binding on COS7 cells co-transfected with IL13Rα1 and IL4Rα; high affinity sites
[3] = molecular target: T2, human IL-13 receptor α1 chain (cDNA clone 3.1) expressed on transiently transfected COS7 cells (human, UniProt P78552 22-427); assay: radioligand binding (displacement of iodinated ligand by cold ligand) on COS7 cells transfected with IL13Rα1
T2 construct: also called IL13Rα1; IL-13 R α1
T2 sequence: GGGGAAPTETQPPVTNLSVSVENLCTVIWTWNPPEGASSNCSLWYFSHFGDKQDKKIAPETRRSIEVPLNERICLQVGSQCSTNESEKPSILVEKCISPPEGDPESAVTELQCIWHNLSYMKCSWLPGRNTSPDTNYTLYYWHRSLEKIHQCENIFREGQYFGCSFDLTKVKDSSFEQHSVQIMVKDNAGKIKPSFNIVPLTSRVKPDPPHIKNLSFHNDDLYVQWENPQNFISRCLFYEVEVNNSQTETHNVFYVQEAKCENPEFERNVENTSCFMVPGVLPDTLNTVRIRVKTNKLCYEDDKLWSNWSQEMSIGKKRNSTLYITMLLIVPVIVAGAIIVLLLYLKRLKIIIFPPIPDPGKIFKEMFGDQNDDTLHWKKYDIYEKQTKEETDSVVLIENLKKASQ

B1: human IL-13 (ligand)
chain: not shown
- Kd [1]: 6.29 nM
- Kd [2]: 0.0459 nM
- Kd [3]: 1.43 nM
